This note sets out measurements from the supplement of paper PMC4604168 (melanoma cell lines).

This is one part of the list. Single values are uncertain, as repeats are few or missing.
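Further: cells treated in 1,536-well plates, then fixed and DAPI-stained, with nuclei counted from automated high-throughput microscope images.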

For this test, the system named is A101D. As to the kind of experiment: cell count relative to DMSO control; melanoma cells; higher = more viable cells. Conditions: library dose: standard library concentration; 72 h.
The compound `O=C(O)[C@@H]1[O][Sb](=[O])([O][Sb]2(=[O])[O][C@H]([C@H](O)CO)[C@H](O)[C@H](C(=O)O)[O]2)[O][C@H]([C@H](O)CO)[C@@H]1O` (some centres undefined) [stibogluconate] + O=C(CCCCCCC(=O)Nc1ccccc1)NO [vorinostat] (first compound 10 µM, partner dose 0.4 µM) returned a cell count of 79.1%. `O=C(O)[C@@H]1[O][Sb](=[O])([O][Sb]2(=[O])[O][C@H]([C@H](O)CO)[C@H](O)[C@H](C(=O)O)[O]2)[O][C@H]([C@H](O)CO)[C@@H]1O` (some centres undefined) [stibogluconate] + Cn1c(Nc2ccc(C(F)(F)F)cc2)nc2cc(Oc3ccnc(-c4ncc(C(F)(F)F)[nH]4)c3)ccc21 [CHIR265] (first compound 10 µM, partner dose 0.4 µM): the cell count came to 79.7%. The result for `Cc1cc(N2CCOCC2)cc2[nH]c(-c3c(NC[C@@H](O)c4cccc(Cl)c4)cc[nH]c3=O)nc12` + O=C(O)c1ccc(-c2c[nH]c3ncc(-c4ccccc4)cc23)cc1C1CCCC1 [GSK650394] (first compound 1 µM, partner dose 0.8 µM) reads 89.5%. The result for `O=C(Nc1cc(C(F)(F)F)cc(C(F)(F)F)c1)c1cc(Cl)ccc1O` + O=C(O)[C@@H]1[O][Sb](=[O])([O][Sb]2(=[O])[O][C@H]([C@H](O)CO)[C@H](O)[C@H](C(=O)O)[O]2)[O][C@H]([C@H](O)CO)[C@@H]1O [stibogluconate] (first compound 0.08 µM, partner dose 10 µM) reads 89.4%; that for `O=C(Nc1cc(C(F)(F)F)cc(C(F)(F)F)c1)c1cc(Cl)ccc1O` + Cc1cc([N+](=O)[O-])ccc1NS(=O)(=O)c1cc(Cl)ccc1Cl [FH535] (first compound 0.08 µM, partner dose 5 µM), 68.7%; that for `O=C(Nc1cc(C(F)(F)F)cc(C(F)(F)F)c1)c1cc(Cl)ccc1O` + Cn1cncc1[C@@](N)(c1ccc(Cl)cc1)c1ccc2c(c1)c(-c1cccc(Cl)c1)cc(=O)n2C [tipifarnib] (first compound 0.08 µM, partner dose 0.05 µM), 95.6%. Turning to `O=C(Nc1cc(C(F)(F)F)cc(C(F)(F)F)c1)c1cc(Cl)ccc1O` + CO[C@@H]1[C@H](N(C)C(=O)c2ccccc2)C[C@H]2O[C@]1(C)n1c3ccccc3c3c4c(c5c6ccccc6n2c5c31)C(=O)NC4 [Midostaurin] (first compound 0.08 µM, partner dose 0.4 µM), the cell count was 52.7%. The value for `O=C(Nc1ccccc1)c1cc([N+](=O)[O-])ccc1Cl` + Cc1cc([N+](=O)[O-])ccc1NS(=O)(=O)c1cc(Cl)ccc1Cl [FH535] (first compound 10 µM, partner dose 5 µM) was 65.4%. The value for `O=C(O)[C@@H]1[O][Sb](=[O])([O][Sb]2(=[O])[O][C@H]([C@H](O)CO)[C@H](O)[C@H](C(=O)O)[O]2)[O][C@H]([C@H](O)CO)[C@@H]1O` (some centres undefined) [stibogluconate] + Nc1nc(F)nc2c1ncn2[C@@H]1O[C@H](CO)[C@@H](O)[C@@H]1O [fludarabine] (first compound 10 µM, partner dose 1 µM) was 114%.
